# Data taken from PubChem BioAssay AID1452 (National Center for Advancing Translational Sciences (NCATS), 2008).
# Out of some 150,000 compounds screened, about 190 (0.13%) were called active. The inconclusive results got no clear call from the source; some entries with a clear call stand among them for comparison. Calls come from the whole dose curve; as a rule, active = well fitted inhibition curve with a large enough effect; inconclusive = small, poorly fitted or top-dose-only effect; inactive = flat fitted curve, though single readings scatter. A potency beside an inconclusive call is a rough fit, not a confirmed value.
# Molecular target: Polyunsaturated fatty acid lipoxygenase ALOX12 (Homo sapiens) (UniProt P18054)
# Assay: qHTS Assay for Inhibitors of 12-hLO (12-human lipoxygenase); note: nearly all actives have a fitted effect of over 55% in size
# Conditions: purified 12-hLO, xylenol orange hydroperoxide absorbance; series mostly up to 57.1 µM; activity change, negative = inhibition: at the top concentration
# Summary of the method: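 Lipoxygenase turnover measured by absorbance at 573 and 405 nm after Fe-XO development. Human 12hLO 150 nM, arachidonate 40 uM, pH 7.0 Hepes buffer with detergent; 15 min compound preincubation, 30 min reaction.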
# % is set by controls: 0 for no effect and ±100 for the full control effect; potency is the fitted concentration of half-maximal effect; tags give direction and shape of the fitted curve.
# Chain of UniProt P18054 (P18054 whole entry, looked up): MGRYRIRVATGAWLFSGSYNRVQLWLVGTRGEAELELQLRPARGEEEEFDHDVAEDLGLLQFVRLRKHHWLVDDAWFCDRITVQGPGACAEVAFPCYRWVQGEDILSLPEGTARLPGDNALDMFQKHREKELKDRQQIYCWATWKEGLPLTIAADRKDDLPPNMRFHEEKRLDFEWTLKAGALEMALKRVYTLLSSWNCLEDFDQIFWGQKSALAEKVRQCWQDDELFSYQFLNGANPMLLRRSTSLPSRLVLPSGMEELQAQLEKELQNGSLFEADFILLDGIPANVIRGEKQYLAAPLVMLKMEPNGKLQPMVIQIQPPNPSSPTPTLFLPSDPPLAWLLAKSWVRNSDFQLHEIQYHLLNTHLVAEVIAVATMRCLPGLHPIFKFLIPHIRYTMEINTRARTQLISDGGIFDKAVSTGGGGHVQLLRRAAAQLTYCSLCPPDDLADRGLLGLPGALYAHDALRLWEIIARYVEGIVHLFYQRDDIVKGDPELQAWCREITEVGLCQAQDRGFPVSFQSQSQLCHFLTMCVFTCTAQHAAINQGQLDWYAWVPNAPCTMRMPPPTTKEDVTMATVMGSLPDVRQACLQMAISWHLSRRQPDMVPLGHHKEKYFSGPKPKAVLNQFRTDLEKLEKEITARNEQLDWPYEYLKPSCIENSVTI
Compound,Potency,"activity change, negative = inhibition"
Cc1ccc(C(=O)NC(=S)Nc2ccccc2C(F)(F)F)cc1C,active: 22.4 µM,
CCn1c(O)c(C=NC2CCCC2)sc1=S,"inconclusive: 22.4 µM [inhibitor, single point]",
Cc1cc(C)c2cc(CN(CCN3CCCC3)C(=O)Nc3ccc(F)cc3)c(=O)[nH]c2c1,"inconclusive: 17.8 µM [inhibitor, partial curve]",
CCNc1ccc(Br)cc(C(=O)/C=C/c2c(Cl)cccc2Cl)c1=O,"inconclusive: 3.55 µM [inhibitor, partial curve]",
O=C(NC(=S)Nc1ccc(N2CCCCC2)c(Cl)c1)c1ccc2c(c1)OCCO2,"inconclusive: 15.8 µM [inhibitor, partial curve]",
Cc1cc(O)c(-c2cc(O)c(C)cc2O)cc1O,"inconclusive: 0.631 µM [inhibitor, full curve]",
CC1CCCC2(C1)NC(=S)N(c1ccccc1)N2 (centres undefined),"inconclusive: 31.6 µM [inhibitor, partial curve, poor fit]",
Cc1ccc(N=C2NC(=O)S/C2=C\c2ccco2)cc1,"inconclusive: 25.1 µM [inhibitor, single point]",
COc1ccc(C(=O)NC2(C(F)(F)F)NC(=O)N(CCCc3ccccc3)C2=O)cc1OC (centres undefined),,inactive: 1.13%
CC(C)OC(=O)CSc1nnc(-c2cnccn2)n1-c1ccc(Cl)cc1,,inactive: 0.201%
Cc1[nH]nc(-c2ccc(O)cc2O)c1Oc1ccccc1,"inconclusive: 4.47 µM [inhibitor, partial curve]",
Cc1cc(=O)[nH]c(SCCCOc2ccc(F)cc2)n1,,inactive: 3.89%
O=C(NCC1CC1)[C@H]1C[C@@H]1[C@H](NP(=O)(c1ccccc1)c1ccccc1)c1ccccc1,,inactive: -1.63%
CC(C)C(=O)Nc1cccc(NC(=S)NC(=O)c2ccc(Cl)cc2)c1,"inconclusive: 12.6 µM [inhibitor, partial curve]",
N#Cc1cc2c(=O)n3ccccc3nc2n(CCN2CCOCC2)c1=O,,inactive: 1.03%
O=C(O)c1cc(O)c2c(c1)C(=O)c1cccc(O)c1C2=O,"inconclusive: 15.8 µM [inhibitor, partial curve]",
CC(C)(C)c1ccc(C(=O)N2CCC(C(=O)NCCC3=CCCCC3)CC2)cc1,,inactive: 1.45%
CC1(C)CC2CC(C)(CN2C(=O)CN2C(=O)c3ccccc3C2=O)C1 (centres undefined),,inactive: -1.56%
Cc1ccc(N2C(=O)C3C(C2=O)C(C(=O)c2ccc(Cl)cc2)N2CCCC32)cc1 (centres undefined),"inconclusive: 14.1 µM [inhibitor, partial curve]",
Cc1cc(-c2nc3ncccc3o2)ccc1N,"inconclusive: 39.8 µM [inhibitor, single point]",
O=C1CC(N2CCC(O)CC2)C(=O)N1c1ccc(Br)cc1 (centres undefined),,inactive: -16.9%
Cc1nn(-c2ccccc2)c(N2CCCC2)c1/C=N/NC(=S)Nc1ccccc1C(F)(F)F,"inconclusive: 22.4 µM [inhibitor, single point]",
COc1ccc(OC)c(CN(CCN2CCOCC2)C(=O)Nc2cccc(Cl)c2)c1,,inactive: 2.34%

Compound,Potency,"activity change, negative = inhibition"
O=C(CNC(=O)c1ccccc1C(=O)O)c1ccccc1,,inactive: -6.1%
Cc1ccc(SCCNC(=S)Nc2ccccc2)cc1,"inconclusive: 28.2 µM [inhibitor, partial curve]",
CCCn1c(-c2ccc(F)cc2)nc2c(NCCN3CCSCC3)nc(C)nc21,,inactive: -4.91%
CCOc1ccc(-c2[nH]nc3c2C(c2ccc(O)cc2)C(C#N)=C(N)O3)cc1 (centres undefined),"inconclusive: 39.8 µM [inhibitor, single point]",
C=C(C)C1CC=C(C)/C(=N\NC(=S)Nc2ccc(C)cc2)C1 (centres undefined),"inconclusive: 20 µM [inhibitor, single point]",
CCN1/C(=C/C(=O)c2ccco2)Sc2ccccc21,"inconclusive: 22.4 µM [inhibitor, partial curve]",
Cc1ccc(OCC(=O)NC(=S)Nc2ccc3c4c(cccc24)CC3)cc1,,inactive: -3.91%
CC1(CCc2ccccc2)NC(=S)N(c2ccc(Cl)cc2)N1 (centres undefined),"inconclusive: 0.0708 µM [inhibitor, full curve, poor fit]",
Cc1ccc(C(=O)CSC2=NC(N)=C(C#N)C3(CCCCC3)C2C(N)=O)cc1 (centres undefined),"inconclusive: 39.8 µM [inhibitor, single point]",
Cc1[nH]n(-c2ccc([N+](=O)[O-])cc2)c(=O)c1C=NCCc1c(C)[nH]c2ccccc12,,inactive: 4.29%
Cc1[nH]c2ccccc2c1C(O)CN1CCN(c2cccc(C(F)(F)F)c2)CC1 (centres undefined),"inconclusive: 15.8 µM [inhibitor, partial curve]",
CC1CCCCC1n1c(=S)[nH]c2ccccc2c1=O (centres undefined),"inconclusive: 28.2 µM [inhibitor, partial curve]",
O=C(/C=C\c1ccc(O)c(O)c1)OCCc1ccccc1,"inconclusive: 14.1 µM [inhibitor, partial curve]",
Cc1ccc2cc(CN(Cc3nnnn3C3CCCCC3)CC3CCCO3)c(=O)[nH]c2c1 (centres undefined),"inconclusive: 17.8 µM [inhibitor, partial curve]",
CCOC(=O)Cc1cc(=O)n(-c2nc3ccccc3s2)[nH]1,"inconclusive: 12.6 µM [inhibitor, partial curve]",
COc1cc(C(=O)NC(=S)Nc2ccc(N3CCCC3)cc2)cc(OC)c1OC,"inconclusive: 12.6 µM [inhibitor, partial curve]",
C/C(=N\Nc1ccc(Cl)cc1)c1ccccn1,"inconclusive: 12.6 µM [inhibitor, partial curve]",
Cc1cc(C)cc(OCC(O)CN2CCC(CN3C(=O)c4cccc5cccc(c45)C3=O)CC2)c1 (centres undefined),,inactive: 2.52%
O=C(O)c1ccccc1-c1ccccc1C(=O)Nc1ccccc1,"inconclusive: 5.01 µM [inhibitor, partial curve, poor fit]",
CCOC(=O)c1cc2c(=O)n3ccccc3nc2n(Cc2ccco2)c1=NC(=O)c1cccnc1,"inconclusive: 14.1 µM [inhibitor, partial curve]",
Cc1nnc(-c2ccccc2)c(=O)n1/N=C/c1c(O)ccc2ccccc12,"inconclusive: 4.47 µM [inhibitor, full curve]",
Cc1ccc(Cn2ccc(NC(=O)c3cc(-c4ccccc4)on3)n2)cc1,,inactive: -1.86%
COc1ccc(OC)c2c(=S)c3ccccc3[nH]c12,active: 25.1 µM,

Compound,Potency,"activity change, negative = inhibition"
COc1cccc(C(=O)NC(=S)Nc2ccc(N3CCCC3)cc2)c1,active: 15.8 µM,
CN=C1N[C@H](c2ccccc2)N(c2ccccc2)S1,"inconclusive: 5.62 µM [inhibitor, full curve]",
COc1ccc(S(=O)(=O)N2CC(C(=O)O)Oc3ccc(CC(=O)O)cc32)cc1 (centres undefined),,inactive: -5.53%
COc1ccccc1NC(=S)NC1CCC(CC2CCC(NC(=S)Nc3ccccc3OC)CC2)CC1 (centres undefined),"inconclusive: 7.08 µM [inhibitor, full curve]",
COc1cc(SC#N)ccc1N=Cc1c(C)[nH]n(-c2cccc3ccccc23)c1=O,"inconclusive: 0.631 µM [inhibitor, full curve, poor fit]",
COc1ccc2nc(/N=C(\N)NC(=O)C(C)(C)C)nc(C)c2c1,"inconclusive: 31.6 µM [inhibitor, single point]",
CC(Oc1ccc(Cl)cc1)C(=O)NNC(=S)NC(=O)c1ccco1 (centres undefined),"inconclusive: 14.1 µM [inhibitor, partial curve]",
CN(Cc1ccccc1)S(=O)(=O)c1ccc(NC(=S)NC(=O)C2CCCCC2)cc1,"inconclusive: 14.1 µM [inhibitor, partial curve]",
CCn1c(=O)c(C(=O)Nc2ccccc2C)c(O)c2ccccc21,,inactive: -4.53%
Cc1ccc([N+](=O)[O-])cc1-c1[nH]c(-c2ccc(O)c(O)c2)nc1-c1ccccc1,"inconclusive: 10 µM [inhibitor, partial curve]",
CCCCCC(C)NC(=S)NC(=O)c1cc(S(=O)(=O)N2CCOCC2)ccc1C (centres undefined),"inconclusive: 22.4 µM [inhibitor, partial curve]",
Cc1ccc(C2C(C#N)=C(N)SC(N)=C2C#N)c(C)c1,"inconclusive: 7.08 µM [inhibitor, partial curve]",
Cc1ccc(C2OCC3(CO)COC(c4ccc(C)cc4)N23)cc1 (centres undefined),"inconclusive: 15.8 µM [inhibitor, partial curve]",
O=S(=O)(Nc1ccc(-n2cccc2)cc1)c1ccc(Cl)cc1Cl,"inconclusive: 8.91 µM [inhibitor, partial curve]",
Cc1nn(C)cc1C(=O)Nc1cc(Oc2ccc(Cl)cc2)cc([N+](=O)[O-])c1,,inactive: -8.34%
O=C(COc1ccccc1)Nc1nc2ccccc2[nH]1,"inconclusive: 39.8 µM [inhibitor, single point]",
CCOc1cc(/C=C2\C(=O)N(c3nc(-c4ccc(Br)cc4)cs3)N=C2c2ccccc2)ccc1O,"inconclusive: 8.91 µM [inhibitor, full curve, poor fit]",
COc1cc(N=Nc2cccc(S(N)(=O)=O)c2)c2ccccc2c1N,"inconclusive: 6.31 µM [inhibitor, single point]",
C/C(=C\C(=O)c1ccccc1)Nc1ccc(N2CCOCC2)cc1,"inconclusive: 31.6 µM [inhibitor, single point]",
O=C(NC(=S)Nc1ccc(N2CCCCC2)cc1)c1cccs1,"inconclusive: 28.2 µM [inhibitor, single point]",
S=C(NCCC(c1ccccc1)c1ccccc1)Nc1cccc(Cl)c1,active: 15.8 µM,
COc1cccc(C2c3c(oc4ccccc4c3=O)C(=O)N2CCCN(C)C)c1OC (centres undefined),"inconclusive: 12.6 µM [inhibitor, partial curve]",
CN(C)S(=O)(=O)c1cccc(C(=O)C2=C3SC=C(c4ccccc4)N3CC2)c1,,inactive: -9.64%
